According to PubChem BioAssay AID1508642 (National Center for Advancing Translational Sciences (NCATS), 2021):
Hit rate of the full screen: of about 43,000 compounds, about 200 (0.47%) were called active. Roughly 12% stayed inconclusive and do not appear here. The call rests on the fitted dose curve; in most records, active means well fitted cell-killing curve with a large enough effect; inconclusive means small, poorly fitted or top-dose-only effect, or effect the other way; inactive means flat fitted curve, though single readings scatter. The list shows a part of the results.

Assay: Cell viability qHTS assay in S16 Pmp22-F2sN cells; further: nearly all actives have a fitted effect of over 65% in size
Conditions: S16 Pmp22-F2sN Schwann cells (luciferase reporters placed in the Pmp22 gene) viability, CellTiter-Glo, 24 h; series mostly up to 57.5 µM; activity change, negative = cytotoxicity: at the top concentration
Description: Assay Provider: Jim Inglese Ph.D. National Center for Advancing Translational Science, National Institutes of Health, Rockville, MD CMT is a heterogeneous group of neurological disorders that affect approximately 1 in 2,500 people. In particular, the most common form of CMT, CMT1A is genetically linked to the duplication of the PMP22 gene which leads to Schwann cell overexpression, thus manifesting itself as a typical case of dose-sensitive diseases. To identify small molecule compounds that can mediate the expression of PMP22 we developed a phenotypic assay screening strategy by utilizing genome editing techniques to construct Schwann cell lines containing novel reporter technology to monitor the transcriptional or translational regulation of PMP22. For high sensitivity we use a bioluminescent reporter system embedded in the 3' UTR of the PMP22 gene (S16(c9) Pmp22-F2sN) to identify compounds that inhibit gene expression. […] We can further discriminate the effect of all transcriptionally active molecules on PMP22 translation or stability with an assay that incorporates a short NLuc peptide (HiBiT) at the C-terminus of expressed PMP22 (S16(f8) PMP22-HiBiT) allowing alpha complementation and luminescence detection of membrane-associated PMP22 protein. These assays were screened against the NCATS Sytravon Library Collection. Miniaturization of these assays to 1536-well plate format for quantitative high throughput screening (qHTS) yielded rich data sets immediately from the qHTS assay (S16(c9) Pmp22-F2sN), when compared with data from a cell viability assay (Cell TiterGlo) to identify compounds that decreased the output signals through cellular toxicity to streamline the selection process of actives for subsequent characterization using the HiBiT assay (S16(f8) PMP22-HiBiT).
Cell viability assay in S16 Pmp22-F2sN cells PROTOCOL TABLE (format as described by Inglese J, Shamu CE and Guy RK. 2007) SEQUENCE No. (e.g., 1, 2, 3, etc.); […] (e.g., Cells, Incubation, Reagent, etc.); VALUE and DESCRIPTION. 1. Cells. Add 500-1,000 cells in 4 uL in growth media (DMEM High Glucose, No Phenol Red media + 10% heat-inactivated FBS + 1% Pen/Strep supplemented media) per well into Greiner 1536-well white/solid bottom high base, TC-treated plates. 2. Compounds. Library compounds and controls added at 23nL per well, transferred by Pin Tool. 3. Incubation. Incubate plates at 37C, 5% CO2, 95% RH for 24 h. 4. Reagent. Add 3uL CellTiter-Glo per well of Greiner 1536-well plates. 5. Incubation. Incubate plates at room temperature for 15 min., protect from light. 6. Detector. FLuc luminescence measured using CCD-based camera (Viewlux). NOTES (numbers refer to Sequence numbers above; values are from representative experiments) 6. Luminescence Read: Clear filter; Exposure = 1 sec, Gain = High, Speed = Slow, Binning = 2X REFERENCES: 1. Inglese J, Shamu CE and Guy RK, Reporting data from high throughput screening of small molecule libraries, Nature Chemical Biology, 2007, 3(8): 438-441. doi.org/10.1038/nchembio0807-438 2. Yasgar A, Shinn P, Jadhav A, Auld DS, Michael S, Zheng W, Austin CP, Inglese J and Simeonov A, Compound Management for Quantitative High-Throughput Screening. J. Assoc. Lab. Auto., 2008, 13: 79-89. doi: 10.1016/j.jala.2007.12.004
On the % scale 0 is the no-effect control and ±100 the full control effect.

Compound	activity change, negative = cytotoxicity
CCC(C(=O)Nc1cc(F)ccc1F)n1nc(-c2cc(C)ccc2C)ccc1=O (centres undefined)	inactive: 10.9%
COC(=O)C(C)n1nnc2sc(-c3ccccc3)cc2c1=O (centres undefined)	inactive: -0.965%
Cc1ccc(NC(=O)CCC(=O)N2CCSc3ccccc32)cc1Cl	inactive: -3.44%
COc1ccc(Br)cc1C(=O)Nc1ccc(-c2nc3cc(Cl)ccc3o2)cc1	inactive: 1.05%
Cc1c(NC(=O)c2cccc3c(Cl)cccc23)cccc1-c1nc2ccccc2o1	inactive: 4.41%
O=C(CCS(=O)(=O)c1cc(Br)cc2c1N(C(=O)C1CC1)CC2)NCc1ccccc1Cl	inactive: 2.42%
CC1=C(C(=O)NCc2ccccc2C)C2(CCCCC2)OC1=O	inactive: 14.7%
Cc1c(NC(=O)C(C)(C)Oc2ccc(Cl)cc2)cccc1-c1nc2ncccc2o1	inactive: -0.702%
CC(=O)c1ccc(NC(=O)Cn2cc(S(=O)(=O)Cc3ccccc3Cl)c3ccccc32)cc1	inactive: 4.72%
Cc1c(Cl)cccc1NC(=O)Nc1nnc(N(C)Cc2ccccc2)s1	inactive: -3.06%
Cc1ccc(NC(=O)c2c(C)oc3nc(C)nc(N4CCCC4)c23)c(C)c1	inactive: 5.31%
CC(Sc1cn(CCNC(=O)c2ccccc2F)c2ccccc12)c1ccccc1 (centres undefined)	inactive: -6.62%
CCC(C(=O)Nc1ccccc1OC)n1nc(C)c2sc3ccccc3c2c1=O (centres undefined)	inactive: -7.22%
Cc1ccc(C)c(OCC(=O)Nc2ccc(S(=O)(=O)Nc3onc(C)c3C)cc2)c1C	inactive: -2.26%
O=S(=O)(c1ccc(F)cc1)N(Cc1nc(-c2ccc(Cl)cc2)no1)C1CCCCC1	inactive: -1.04%
COc1ccc(C)cc1NC(=O)Cn1c(=O)ccc2cc(S(=O)(=O)N3CCC(C)CC3)ccc21	inactive: -19.9%
CCOc1ccc(CCNC(=O)c2ccc(CS(=O)Cc3cccc(Cl)c3)o2)cc1 (centres undefined)	inactive: -2.12%
COC(=O)c1ccc(NC(=O)CSc2ncc3c(n2)-c2cc(Cl)ccc2N(Cc2ccccc2)S3(=O)=O)cc1	inactive: -27.9%
Cc1ccc2c(=O)c(C(=O)c3ccc(Cl)cc3)cn(CC(=O)NC3CCCCC3)c2n1	inactive: -1.4%
CSc1ccc(CCNC(=O)CN2C(=O)c3cccnc3Oc3ccc(Cl)cc32)cc1	inactive: 1.74%
O=C(CSc1nc(-c2cccs2)nc2cc(=O)[nH]n12)Nc1ccccc1F	inactive: -1.25%
CCOc1ccc(CCNC(=O)CSc2cc(=O)n(C)c3cc(Cl)ccc23)cc1OCC	inactive: -12.2%
CCCCn1c(NCc2cc(Cl)ccc2O)nc2ccccc21	inactive: 22.8%
CCCC1=Nc2cc(C(=O)NCCc3ccccc3)ccc2Sc2ccc(C)cc21	inactive: -2.45%
COc1ccccc1NC(=O)NCc1cccn1Cc1ccccc1	inactive: 18.5%

Compound	activity change, negative = cytotoxicity
Cc1cc(Br)ccc1NC(=O)c1ccc(NS(=O)(=O)c2c(C)noc2C)cc1	inactive: 14.8%
COc1ccc(NC(=O)Cn2cnc3ccc(S(=O)(=O)N4CCC(C)CC4)cc3c2=O)cc1OC	inactive: 7.3%
COc1cccc(-c2nc(SCC(=O)NC3CCCC3)c(-c3ccccc3)[nH]2)c1	inactive: -0.153%
CCOc1ccc(-c2nc(SCC(=O)NC3CCCC3)c(-c3ccccc3)[nH]2)cc1OC	inactive: 1.43%
COc1ccc(-c2cnn3c(C)cc(C)nc23)cc1OC	inactive: -17.9%
COc1ccccc1CNC(=O)CCC1N=C2c3ccccc3N=C(SCc3ccc(C)cc3)N2C1=O (centres undefined)	inactive: -21.6%
COC(=O)c1c(NC(=O)Nc2ccc(Cl)cc2)sc(C)c1C	inactive: -5.13%
CC(=O)c1cc(-c2ccccc2)n(CCC(=O)Nc2ccc(C)cc2C)c1C	inactive: 5.2%
COc1ccc(N2CC(NC(=O)c3cc4ccccc4o3)CC2=O)cc1 (centres undefined)	inactive: -0.134%
Cc1ccc2c(c1)N(C(=O)Nc1cccc(C)c1C)CCO2	inactive: -1.48%
CS(=O)(=O)N1CCc2cc(C(=O)N3CCN(c4ccccc4)CC3)ccc21	inactive: -5.67%
CCCc1nnc(NC(=O)c2cc(=O)c3cc(Cl)ccc3o2)s1	inactive: 3.53%
COc1ccc(CCC(=O)NCCc2csc(-c3ccc(C(F)(F)F)cc3)n2)cc1	inactive: -2.5%
COc1cccc(N2CCN(c3ncnc4onc(-c5ccc(F)cc5)c34)CC2)c1	inactive: -1.63%
CCOC(=O)c1cc(S(=O)(=O)N2CCN(c3ccc(C)cc3C)CC2)[nH]n1	inactive: 10.7%
Cc1ccc(C)c(NC(=O)CSC2=Nc3ccccc3N=C(c3ccc(F)cc3)C2)c1	inactive: -2.61%
O=C(CCCCCn1c(=O)[nH]c2ccccc2c1=O)NCc1ccccc1	inactive: 4.49%
O=C(C1CCCN(S(=O)(=O)c2cccc3nsnc23)C1)N1CCN(c2ccccc2Cl)CC1 (centres undefined)	inactive: -15.6%
Cc1cccc(N(C)c2ccc3cc(S(=O)(=O)N4CCCC4)ccc3n2)c1	inactive: -16.9%
Cc1ccc2c(c1)c(N1CCCC1=O)c(C(=O)Nc1ccc(F)cc1F)n2C	inactive: 4.86%
CCC(=O)N1CCc2cc(S(=O)(=O)NC(Cc3ccccc3)C(=O)Nc3cccc(OC)c3)ccc21 (centres undefined)	inactive: 6.1%
CN(C)c1ccc(NC(=O)Cn2cc(S(=O)(=O)Cc3cccc(Cl)c3)c3ccccc32)cc1	inactive: 8.28%
Cc1nc2scc(C)n2c(=O)c1S(=O)(=O)N1CCN(c2cccc(C(F)(F)F)c2)CC1	inactive: -21.4%
Cc1ccc(-c2c(C(=O)Nc3ccccc3F)oc(=O)c3ccccc23)cc1	inactive: 1.68%
